Source: PMC4336329 (PLoS ONE, 2015)
Out of some 310,000 compounds screened, about 2,200 (0.71%) showed an effect of 50% or more. Effects have a minus sign here. Some of the results follow. *1 amine or outer side, *2 acyl side, *3 side chain or, on linkers, in order; H or OH if unused. Where a SMILES comes first, the peptide text is derived from it. The star is where a group is joined. CO = O=C([*:1])[*:2]; NHPh = c1ccc(N*)cc1

Molecular target: human ether-à-go-go-related gene (hERG) potassium channel (human, UniProt Q12809)
Assay: primary screen, population patch clamp on CHO cells stably expressing hERG

human ether-à-go-go-related gene (hERG) potassium channel, sequence (Q12809 whole entry, looked up): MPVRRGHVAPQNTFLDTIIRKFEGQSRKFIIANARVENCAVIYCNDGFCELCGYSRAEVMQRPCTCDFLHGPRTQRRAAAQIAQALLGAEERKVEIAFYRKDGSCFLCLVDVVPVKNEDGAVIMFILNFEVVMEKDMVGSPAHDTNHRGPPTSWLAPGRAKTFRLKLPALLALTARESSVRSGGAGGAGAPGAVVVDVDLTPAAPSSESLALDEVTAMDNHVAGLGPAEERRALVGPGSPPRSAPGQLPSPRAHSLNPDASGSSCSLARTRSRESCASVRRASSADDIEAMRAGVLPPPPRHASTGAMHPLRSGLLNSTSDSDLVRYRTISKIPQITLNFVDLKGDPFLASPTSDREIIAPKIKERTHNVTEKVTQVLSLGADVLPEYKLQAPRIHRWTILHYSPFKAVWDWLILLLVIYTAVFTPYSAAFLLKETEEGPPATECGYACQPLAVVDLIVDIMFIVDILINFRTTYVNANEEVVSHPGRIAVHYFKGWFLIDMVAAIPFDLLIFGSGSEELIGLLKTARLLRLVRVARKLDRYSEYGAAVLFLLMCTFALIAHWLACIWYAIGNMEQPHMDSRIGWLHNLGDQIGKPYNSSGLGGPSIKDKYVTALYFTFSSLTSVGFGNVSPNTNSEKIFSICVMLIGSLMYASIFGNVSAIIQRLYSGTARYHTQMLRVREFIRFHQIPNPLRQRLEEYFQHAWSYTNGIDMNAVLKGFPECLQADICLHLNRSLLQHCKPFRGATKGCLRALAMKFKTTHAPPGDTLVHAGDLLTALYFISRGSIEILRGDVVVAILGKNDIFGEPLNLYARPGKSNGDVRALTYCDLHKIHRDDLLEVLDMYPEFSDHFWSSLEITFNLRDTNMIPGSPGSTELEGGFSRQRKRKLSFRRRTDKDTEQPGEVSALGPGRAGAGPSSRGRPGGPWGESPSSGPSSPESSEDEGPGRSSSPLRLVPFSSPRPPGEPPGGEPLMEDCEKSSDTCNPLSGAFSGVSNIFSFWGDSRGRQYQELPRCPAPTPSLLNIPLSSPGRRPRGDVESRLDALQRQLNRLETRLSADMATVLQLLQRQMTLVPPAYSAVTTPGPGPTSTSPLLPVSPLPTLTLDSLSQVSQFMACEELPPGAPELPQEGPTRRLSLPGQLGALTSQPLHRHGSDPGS

SMILES | hERG current change (%, negative = inhibition) at 1uM [%]
Cc1ccc(N=C2C(=O)Nc3ccccc32)cc1 | 1.54
Cc1ccc(Cl)c2c1=NC(=O)C=2c1[nH]c(=S)[nH]c1O | 4.5
O=C(NC(=S)NCc1cccnc1)c1ccccc1F | 9.44
C=CCN(CC=C)C(=S)Nc1ccccc1 | 13.8
Cc1ccc(-c2csc3ncnc(-n4nc(C)cc4N)c23)cc1 | 1.99
COc1ccc2c(c1)CCc1c(C(=O)Nc3c(C)nn(Cc4ccccc4)c3C)noc1-2 | 11.6
COc1ccc(C2C3=C(CC(C)(C)CC3=O)N(C)C3=C2C(=O)CC(C)(C)C3)cc1 | 6.72
CCCCN(C/C=C/c1ccccc1OC)Cc1ccccc1 | 14.4
COc1ccc(-c2csc(-c3cccs3)n2)cc1OC | 9.38
COc1cccc(NC(=O)c2cc(=O)c3ccccc3o2)c1 | 13.2
Cc1ccc(C)c(N=Cc2ccc(-c3ccc([N+](=O)[O-])cc3)o2)c1 | 12.6
O=C(O)c1ccc(/C=N/Nc2cccc(C(F)(F)F)c2)cc1 | 14
CSc1ccc(CCNC(=O)CCc2nnc3ccc(N4CCOCC4)nn23)cc1 | 0.904
CN(C)S(=O)(=O)c1cccc(NC(=O)COC(=O)c2ccc([N+](=O)[O-])o2)c1 | 4.9
Cc1c(C(=O)NCCCN2CCOCC2)sc2nc(-c3ccc(F)cc3)cn12 | -16.8
CC(NC(=O)C1CCN(S(=O)(=O)c2cccc3nonc23)CC1)c1ccccc1 (centres unmarked) | 13.9
CN(CC(=O)Nc1ccc(N2CCOCC2)cc1)CC(=O)Nc1ccc(C(F)(F)F)cc1 | 8.49
COc1ccc(Br)cc1CNC(=O)CCc1nc(-c2ccc(C)cc2)no1 | 15.4
O=C(NCCN1CCOCC1)c1cc(-c2ccccc2Cl)on1 | 14
COc1ccc(NC(=O)C2CC3CCC2C3)c(OC)c1 (centres unmarked) | 6.79
COc1ccc(C(=O)Oc2ccc(C(C)=O)cc2)c(OC)c1 | 11.5
O=C(CCn1cnc2ccccc2c1=O)Nc1ccc(S(=O)(=O)N2CCCCC2)cc1 | 11.3
O=C(N/N=C/c1ccc(Br)s1)c1ccc([N+](=O)[O-])cc1 | 1.03

SMILES | hERG current change (%, negative = inhibition) at 1uM [%]
CCCNC1=C(N(C(C)=O)c2cccc(F)c2)C(=O)c2ccccc2C1=O | 10.2
O=C(CN(Cc1ccc(F)cc1)C(=O)CNS(=O)(=O)c1ccccc1)NCc1ccco1 | 10.1
COc1ccc(C(=O)Nc2nc3ccccc3s2)cc1OC | 7.56
CC(C)C1Nc2ccc(C(=O)O)cc2C2C=CCC21 (centres unmarked) | 16.7
[N-]=[N+]=NC[C@H](Cc1ccccc1)N1CCN(Cc2ccccc2)CCC1=O | 5.84
COc1cc(NC(=O)c2sc3ncn(CC(=O)N4CCC(C)CC4)c(=O)c3c2C)cc(OC)c1OC | 12.5
COC(=O)CNC(=O)CNC(=O)Nc1ccccc1 ({NHPh-CO}-Gly-Gly-OMe) | 4.39
CCc1ccc(C(=O)NNC(=S)Nc2ccc(S(N)(=O)=O)cc2)s1 | 11.6
COc1ccccc1NC(=O)CSc1nc(O)c(Cc2ccccc2)c(=O)[nH]1 | 12
CC1(C)CC(=O)C=C(Nc2ccc(C(=O)O)cc2)C1 | 13.4
CCCCc1ccc(NC(=O)CSCc2cc(=O)[nH][nH]2)cc1 | 1.42
O=C1NN=C(c2ccccc2)CC1c1c[nH]c2ccccc12 (centres unmarked) | 3.34
Cc1nnc(N2CCOCC2)c2nn(-c3ccccc3)c(C)c12 | -6.07
Nc1c(C(=O)NCc2ccc3c(c2)OCO3)nnn1Cc1ccc(Br)cc1 | 2.1
O=C(CCN1C(=O)c2ccccc2C1=O)Nc1ccc(-c2cn3ccsc3n2)cc1 | 17.9
Nc1cc(N2CCCCC2)c(Cl)cc1[N+](=O)[O-] | 8.09
CCOC(=O)c1nc(NCc2ccccc2C)c2ccccc2n1 | 14
Cc1ccc(-n2ncc3c(=O)[nH]c(SC(C)C)nc32)cc1 | -9.17
Cn1c(N)c(C(=O)COC(=O)CCC2CCCC2)c(=O)n(C)c1=O | -20.9
COc1cccc(CNC(=O)c2ccc(NC(=O)CC3SC(N4CCCCC4)=NC3=O)cc2)c1 (centres unmarked) | 3.95
O=C(O)c1cccc2c(/C=N/Nc3ccccn3)c[nH]c12 | 3.15
COc1ccc(-n2c(Cc3cccn3C)nnc2SCC(=O)Nc2ccccc2C)cc1 | -4.46
CCOc1ccccc1CNC(=O)CN1C(=O)CSc2ccc(S(=O)(=O)N3CCOCC3)cc21 | 14.1

SMILES | hERG current change (%, negative = inhibition) at 1uM [%]
CCC(=O)NNc1nc2c(C)cc(C)cc2s1 | 15.8
CCOC(=O)C(=O)Nc1nccs1 | 10.9
CCN(CC)c1ccc(N)cc1S(=O)(=O)Nc1ccc(OC)cc1 | 6.69
CC1CN(C(=O)CSc2nnc(-c3ccncc3)n2-c2ccccc2)CC(C)O1 (centres unmarked) | 11.2
C/C(CCc1ccccc1)=N\NC(=O)COc1ccccc1C | 11.2
C=CCSc1nc(C)cc2c1C(=O)OC2 | 10.4
CCc1ccc(CNC(=O)CCn2ccc3cc(S(=O)(=O)N4CCCC4)ccc32)cc1 | 12.1
O=C(Nc1nccs1)c1ccccc1N=Cc1ccccc1 | -3.37
Cc1ccc2c(c1)N(C(=O)CCC(=O)N1CCC3(CC1)OCCO3)CC(C)O2 (centres unmarked) | 12.4
O=C(Nc1cccc(C(F)(F)F)c1)NC1CCN(S(=O)(=O)c2ccc(F)cc2)CC1 | 9.52
Cc1nn(-c2cc(N3CCCCC3)ccc2N)c(=O)c2ccccc12 | 1.2
CC(C)(C)N1NC(=O)Nc2ccccc2C1=O | -5.08
Cc1nc(C)c(-c2ccccc2)c(=O)[nH]1 | 12.8
CCCn1cnc2cc(NCc3ccccc3O)ccc21 | 10.9
CSc1ccccc1C(=O)NCc1cccnc1 | 10
O=C(COC(=O)c1ccccn1)NCc1cccs1 | 0.372
O=C(CN1C(=O)C2CC=CCC2C1=O)NC1=NCCS1 (centres unmarked) | 13
Cc1sc(NC(=O)CSc2nnnn2C)c(C#N)c1C | 0.332
CC(C)CN(CC(C)C)C(=O)CCCC(=O)N(CC(C)C)CC(C)C | 0.861
COc1ccc(/C=C(\NC(=O)c2ccc(Cl)cc2)C(=O)NCC2CCCO2)cc1OC (centres unmarked) | 9.19
CN(/N=C/C=C/c1ccccc1)C1=NS(=O)(=O)c2ccccc21 | 13.5
N/C(Cc1ccc([N+](=O)[O-])cc1)=N\OC(=O)c1ccco1 | 4.4
COC(=O)c1ccc(COc2cc(C)cc3oc(=O)c4c(c23)CCCC4)o1 | 17

SMILES | hERG current change (%, negative = inhibition) at 1uM [%]
CCn1c(SCC(=O)N2CCN(c3ccccc3F)CC2)nnc1-c1ccoc1C | -3.74
Clc1ccc(C[n+]2cc(-c3ccc(Cl)cc3)n3c2CCC3)cc1.[Cl-] | -12
O=C(Nc1ccccc1NC(=O)c1c(F)cccc1F)c1c(F)cccc1F | 15.9
COc1ccc(C(=O)OC(C(=O)c2ccccc2)c2ccccc2)cc1 (centres unmarked) | 8.4
Cc1csc(=O)n1CCC(=O)O | 4.44
CCn1cc(SCC(N)=O)c2ccccc21 | 7.78
O=C(O)C1CC(=O)N(Cc2cccnc2)C1 (centres unmarked) | 10.2
CCOC(=O)c1cnc2ccccc2c1Nc1cc(C(=O)O)ccc1C | 8.05
Cc1ccc2nccc(C(=O)N3CCCC(Nc4ccc(C)c(C)c4)C3)c2c1 (centres unmarked) | 1.96
COC(CNC(=O)c1ccc2c(c1)ncn2C1CCCCCC1)OC | 5.54
O=C(CSc1ccccc1)Nc1ccc2sccc2c1 | 11.9
COc1ccc(C2=NN(C(=O)c3cccs3)C(c3ccccc3OC)C2)cc1OC (centres unmarked) | 2.8
O=C(CCC1CCN(C(=O)c2cncs2)CC1)Nc1ccccc1 | 13.9
OCC[C@H]1C[C@@H](O)[C@H](O)[C@@]2(Cc3ccccc3CO2)O1 | 10.7
CCC(=O)NC(=S)Nc1ccc(NC(=O)c2ccco2)cc1 | 20.6
O=C(NCc1ccco1)c1ccc(CS(=O)(=O)Cc2ccc(F)cc2)o1 | 3.97
O=C(Nc1cccc2ccccc12)N1CC=C(c2ccccc2)CC1 | 12.4
CCCCCCSc1nsc(NC(=O)CCC)n1 | 5.02
COc1ccc(N(CC(=O)N2CCN(c3ccc(Cl)cc3)CC2)S(=O)(=O)c2c(C)noc2C)cc1 | 5.9
CCOc1ccc(C(CC(=O)O)NC(=O)COc2ccccc2)cc1OC (centres unmarked) | 14.3
Cc1cc(NC(=O)COC(=O)C2CCC(=O)N2)c([N+](=O)[O-])cc1C (centres unmarked) | 18.4
CC(=O)n1nc(-c2ccc(Cl)cc2)nc1NCc1ccco1 | 13.5
O=C(O)c1ccc(/C=N/Nc2ncc(Cl)cc2Cl)cc1 | 12
